# Measured values reported in PubChem BioAssay (Tox21).
# Inconclusive results, whose numbers are uncertain, are shown with a selection of clear calls. Potencies of inconclusive entries are doubtful fits and often do not repeat. Calls of active or inactive are those of the source. Unless noted, calls come from the whole dose curve; as a rule, active = well fitted curve in the direction sought with a large enough effect in the repeat runs; inconclusive = weak or mixed curves; inactive = no such curve, though single readings can be large; an effect the other way counts as inactive or inconclusive.
# Columns and labels:
# [1] = qHTS assay to identify small molecule antagonists of the androgen receptor (AR) signaling pathway - cell viability counter screen (AID 743033; note: nearly all actives have a fitted effect of over 45% in size); details: AR-bla HEK293 viability, CellTiter-Glo luminescence, 16 h; activity change, negative = cytotoxicity: at 58.5 µM (top of the series) unless noted
# [2] = qHTS assay to identify small molecule antagonists of the androgen receptor (AR) signaling pathway using the MDA cell line - cell viability counter screen (AID 743041; note: nearly all actives have a fitted effect of over 45% in size); details: MDA-kb2 viability, CellTiter-Fluor, 16 h, cells co-treated with R1881 androgen agonist; series mostly up to 70.3 µM
# How it was run: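 Viability counter screen run alongside the AR antagonist reporter: cells seeded 5 h before compound, R1881 added, 16 h incubation at 37C without CO2, fluorescent CellTiter-Fluor signal quantified.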
# [3] = qHTS assay to identify small molecule antagonists of the thyroid receptor (TR) signaling pathway - cell viability counter screen (AID 743064); details: GH3.TRE-Luc viability, CellTiter-Fluor, 24 h; activity change, negative = cytotoxic: at 70.3 µM (top of the series) unless noted; note: nearly all actives have a fitted effect of over 50% in size
# How it was run: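 Compounds were tested on GH3.TRE-Luc cells in the presence of T3 at 1 nM final. Following 23.5 h at 37 °C, cell viability was quantified by CellTiter-Fluor.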
# [4] = qHTS assay to identify small molecule antagonists of the estrogen receptor alpha (ER-alpha) signaling pathway - cell viability counter screen (AID 743074; calls by dose curve;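 note: HEK293 cells carrying ER-alpha-UAS-bla reporter stimulated with 17beta-estradiol; nearly all actives have a fitted effect of over 45% in size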); details: ERalpha-bla HEK293 viability, CellTiter-Glo luminescence, 18 h; series mostly up to 69.4 µM
# [5] = target: Estrogen receptor (Homo sapiens) (UniProt P03372); test: qHTS assay to identify small molecule agonists of the estrogen receptor alpha (ER-alpha) signaling pathway using the BG1 cell line (AID 743079); details: BG1Luc4E2 cells, ERE-luciferase agonist, 22 h; activation: at 70.3 µM (top of the series) unless noted; note: nearly all actives have a fitted effect of over 20% in size
# [6] = qHTS assay to identify small molecule antagonists of the estrogen receptor alpha (ER-alpha) signaling pathway using the BG1 cell line (AID 743080; calls by dose curve;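 note: BG1 cells stimulated with 17beta-estradiol alongside compound; nearly all actives have a fitted effect of over 25% in size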); details: BG1Luc4E2 ERE-luciferase antagonist mode, luminescence; activity change, negative = inhibition: at 70.3 µM (top of the series) unless noted
# How it was run: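 BG1-Luc-4E2 cells (endogenous full-length ER-alpha, 4xERE luciferase) hormone-starved 5 days in charcoal-stripped FBS, plated 4,000/well for 24 h, then compound plus 17beta-estradiol for 21.5 h at 37 C; ONE-Glo luminescence read.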
# [7] = target: Androgen receptor (Homo sapiens) (UniProt P10275); test: qHTS assay to identify small molecule antagonists of the androgen receptor (AR) signaling pathway (AID 743035; active = well fitted inhibition curve with a large enough effect in the signal ratio in the repeat runs, not every such curve was filed as active; inconclusive = weak or mixed curves, or effect the other way; inactive = no such curve, though single readings can be large or run the other way; the % refers to the signal ratio); details: HEK293 AR-UAS-bla, R1881-stimulated, beta-lactamase FRET, 16 h; activity change, negative = inhibition: at 58.5 µM (top of the series) unless noted
# How it was run: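 Fluorescence from a beta-lactamase FRET substrate (LiveBLAzer B/G, 2 h, room temperature) measured inhibition of R1881-stimulated signaling in GeneBLAzer AR-UAS-bla HEK293 cells exposed to compound for 16 h at 37C.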
# [8] = target: Androgen receptor (Homo sapiens) (UniProt P10275); test: qHTS assay to identify small molecule agonists of the androgen receptor (AR) signaling pathway (AID 743036; active = well fitted activation curve with a large enough effect in the signal ratio in the repeat runs, with a control signal flat, not every such curve was filed as active; inconclusive = weak or mixed curves, or effect the other way; inactive = no such curve, though single readings can be large or run the other way; the % refers to the signal ratio); details: HEK293 AR-UAS-bla GripTite, beta-lactamase FRET ratio, 16 h; activation: at 62.4 µM (top of the series) unless noted
# How it was run: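 Beta-lactamase under UAS control, stably integrated in HEK293 GripTite cells, reports receptor activation. After 16 h compound treatment, cells received FRET substrate for 2 h at room temperature before fluorescence reading.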
# [9] = target: Estrogen receptor (Homo sapiens) (UniProt P03372); test: qHTS assay to identify small molecule antagonists of the estrogen receptor alpha (ER-alpha) signaling pathway (AID 743069; active = well fitted curve in the direction sought with a large enough effect in the signal ratio in the repeat runs, not every such curve was filed as active; inconclusive = weak or mixed curves, or effect the other way; inactive = no such curve, though single readings can be large or run the other way; the % refers to the signal ratio); details: HEK293 ER-alpha-UAS-bla, beta-lactamase ratio, antagonist mode; series mostly up to 69.4 µM
# How it was run: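 Estradiol-stimulated ER-alpha-UAS-bla HEK293 cells, 18 hr compound exposure at 37C. LiveBLAzer B/G substrate, 2 hr RT, fluorescence read.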
# [10] = target: Estrogen receptor (Homo sapiens) (UniProt P03372); test: qHTS assay to identify small molecule agonists of the estrogen receptor alpha (ER-alpha) signaling pathway (AID 743075; calls by dose curve;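 note: HEK293 GripTite cells with ER-alpha and UAS-driven beta-lactamase reporter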); details: HEK293 ER-alpha-UAS-bla, beta-lactamase FRET ratio, 18 h; series mostly up to 70.1 µM
# [11] = qHTS assay to identify small molecule antagonists of the estrogen receptor alpha (ER-alpha) signaling pathway using the BG1 cell line - cell viability counter screen (AID 743081); details: BG1Luc4E2 viability, CellTiter-Fluor, 22 h; activity change, negative = cytotoxicity: at 70.3 µM (top of the series) unless noted;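 note: compound given together with 17beta-estradiol as the ER stimulus; nearly all actives have a fitted effect of over 45% in size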
# Potency is the fitted concentration of half-maximal effect; tags give direction and shape of the fitted curve or compound fluorescence and quenching.
# Sequence of UniProt P03372 (P03372 whole entry, looked up): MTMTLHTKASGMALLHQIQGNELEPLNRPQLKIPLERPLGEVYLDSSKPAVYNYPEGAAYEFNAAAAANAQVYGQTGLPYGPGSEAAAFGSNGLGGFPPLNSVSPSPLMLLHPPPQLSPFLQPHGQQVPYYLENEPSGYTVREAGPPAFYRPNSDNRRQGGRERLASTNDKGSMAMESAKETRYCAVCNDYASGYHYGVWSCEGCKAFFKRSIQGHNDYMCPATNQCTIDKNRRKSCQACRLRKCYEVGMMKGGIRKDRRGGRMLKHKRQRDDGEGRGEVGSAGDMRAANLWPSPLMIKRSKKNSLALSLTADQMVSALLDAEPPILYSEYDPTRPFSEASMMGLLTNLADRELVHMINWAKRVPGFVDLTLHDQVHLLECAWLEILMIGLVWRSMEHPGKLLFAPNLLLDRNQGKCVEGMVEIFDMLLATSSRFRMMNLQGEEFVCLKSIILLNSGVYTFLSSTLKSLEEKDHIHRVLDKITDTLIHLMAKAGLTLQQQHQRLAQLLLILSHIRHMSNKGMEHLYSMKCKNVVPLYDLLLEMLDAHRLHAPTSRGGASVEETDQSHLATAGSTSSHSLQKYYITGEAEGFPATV
# Sequence of UniProt P10275 (P10275 whole entry, looked up): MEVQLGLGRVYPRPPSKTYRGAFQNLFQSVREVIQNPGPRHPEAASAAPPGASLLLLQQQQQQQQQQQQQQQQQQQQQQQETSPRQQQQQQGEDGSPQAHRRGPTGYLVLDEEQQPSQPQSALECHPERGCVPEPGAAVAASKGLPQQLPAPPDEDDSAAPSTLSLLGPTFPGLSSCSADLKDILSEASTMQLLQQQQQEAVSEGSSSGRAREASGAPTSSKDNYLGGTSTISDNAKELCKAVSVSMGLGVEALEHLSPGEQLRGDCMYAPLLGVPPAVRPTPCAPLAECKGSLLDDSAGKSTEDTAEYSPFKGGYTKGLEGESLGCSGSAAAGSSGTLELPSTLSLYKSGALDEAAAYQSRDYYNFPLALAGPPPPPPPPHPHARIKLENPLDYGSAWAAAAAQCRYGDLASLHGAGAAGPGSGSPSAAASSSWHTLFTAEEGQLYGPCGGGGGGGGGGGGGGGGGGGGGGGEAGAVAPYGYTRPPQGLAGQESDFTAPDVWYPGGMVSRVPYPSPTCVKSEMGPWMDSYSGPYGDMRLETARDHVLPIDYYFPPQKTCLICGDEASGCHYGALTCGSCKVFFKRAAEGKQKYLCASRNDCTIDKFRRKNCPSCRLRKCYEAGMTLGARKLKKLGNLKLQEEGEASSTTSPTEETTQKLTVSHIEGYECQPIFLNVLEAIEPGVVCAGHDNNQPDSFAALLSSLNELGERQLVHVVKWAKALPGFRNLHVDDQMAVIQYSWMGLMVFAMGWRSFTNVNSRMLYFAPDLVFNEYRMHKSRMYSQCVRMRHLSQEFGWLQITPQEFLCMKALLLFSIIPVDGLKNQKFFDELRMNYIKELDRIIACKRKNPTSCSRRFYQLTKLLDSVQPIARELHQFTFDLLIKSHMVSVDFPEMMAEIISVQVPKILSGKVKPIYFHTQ
structure (smiles),measurement,setting,value
O=C(NO)C1(NS(=O)(=O)c2ccc(Oc3ccc(F)cc3)cc2)CCOCC1,Potency,[1],inactive
same,Potency,[2],"inconclusive: 68.6 µM [cytotoxic, partial curve, poor fit]"
same,Potency,[3],inactive
same,Potency,[4],inactive
same,Potency,[5],"inconclusive: 13.7 µM [inhibitor, full curve]"
same,Potency,[6],"inconclusive: 77 µM [falling, single point]"
CCN(Cc1cccnc1)C(=O)c1cccc(Cl)c1[C@]1(C)C(=O)N(Cc2ccc(OC)cc2OC)c2ccc(Cl)cc21,Potency,[1],inconclusive: 20.4 µM [cytotoxic]
same,Potency,[7],"inconclusive: 36.3 µM [falling, partial curve]"
same,Potency,[8],"inconclusive: 36.3 µM [falling, partial curve]"
same,Potency,[2],"inconclusive: 28.6 µM [cytotoxic, full curve]"
same,Potency,[9],"inconclusive: 1.82 µM [fluorescent, full curve]"
same,Potency,[10],"inconclusive: 32.4 µM [falling, partial curve]"
same,Potency,[5],"inconclusive: 11.4 µM [inhibitor, partial curve]"
same,Potency,[6],"inconclusive: 32.1 µM [falling, partial curve]"
same,Potency,[11],"inconclusive: 28.6 µM [cytotoxic, partial curve]"
CC(C)=CCCC(C)CCO (stereo not drawn),Potency,[1],inactive
same,Potency,[3],"inconclusive: 28.3 µM [rising, single point]"
same,Potency,[4],"inconclusive: 22.7 µM [cytotoxic, single point]"
same,Potency,[6],inactive
CC(C)OB(OC(C)C)OC(C)C,Potency,[1],inactive
O=C(O)c1ccccc1OP(=O)(O)O,Potency,[1],inactive
same,Potency,[2],inactive
same,Potency,[4],inactive
